Measured values as given in publication PMC6919601, “Identification of Plasmodium dipeptidyl aminopeptidase allosteric inhibitors by high throughput screening” (PLoS ONE, 2019).
In all, about 110,000 compounds went through this assay and about 230 (0.21%) showed an effect of 50% or more. The list shows a part of the results.

molecular target: DPAP1 (Plasmodium falciparum, UniProt Q8IIJ9); assay: primary screen, percent inhibition; read by cleavage of a fluorogenic dipeptide substrate; higher = more effect of the substance; design: species or system P. falciparum D10 trophozoite lysates; single well
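Note: 30 min substrate incubation versus DMSO and 10 µM JCP410 controls.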

Chain of DPAP1 (Q8IIJ9 whole entry, looked up): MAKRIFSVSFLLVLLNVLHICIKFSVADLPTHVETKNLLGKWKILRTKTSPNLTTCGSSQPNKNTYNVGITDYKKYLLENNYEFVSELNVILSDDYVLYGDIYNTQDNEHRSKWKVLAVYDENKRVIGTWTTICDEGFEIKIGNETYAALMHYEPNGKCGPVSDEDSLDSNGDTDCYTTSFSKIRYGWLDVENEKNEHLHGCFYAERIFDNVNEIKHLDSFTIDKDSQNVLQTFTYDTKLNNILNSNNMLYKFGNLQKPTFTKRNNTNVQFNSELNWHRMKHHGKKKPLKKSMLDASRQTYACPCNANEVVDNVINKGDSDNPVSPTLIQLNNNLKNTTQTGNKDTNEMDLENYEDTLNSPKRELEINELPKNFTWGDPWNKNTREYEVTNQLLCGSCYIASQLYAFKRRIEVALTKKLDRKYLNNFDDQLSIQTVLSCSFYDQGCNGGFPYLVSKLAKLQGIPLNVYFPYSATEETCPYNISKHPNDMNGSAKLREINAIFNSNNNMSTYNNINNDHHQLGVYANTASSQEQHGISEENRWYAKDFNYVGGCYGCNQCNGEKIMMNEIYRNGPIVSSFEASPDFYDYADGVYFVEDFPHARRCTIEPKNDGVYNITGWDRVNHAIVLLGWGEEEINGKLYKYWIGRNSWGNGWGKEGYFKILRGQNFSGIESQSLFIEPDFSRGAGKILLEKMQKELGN

SMILES	% Inhibition @ 10 uM [%]
Cc1ccc2nc(C)n3c4ccccc4c(NC(=O)c4ccccc4)c3c2c1	-6.87
CCc1nn(-c2cc(Oc3ccccc3)nc(C)n2)c(N)c1C#N	-5.48
COc1ccccc1C1=NN(S(C)(=O)=O)C(c2ccco2)C1 (stereo not shown)	-3.34
Cc1ccc2[nH]c3c(c2c1)CCCC3NC=O (stereo not shown)	3.47
CCOC(=O)c1c(S(=O)(=O)N(CC)Cc2ccccc2)c(C)n(C)c1C	5.34
O=C(NCCCNC(=O)c1cccc(Cl)c1)c1cccc(Cl)c1	3.67
O=C(O)CCNCCC(=O)c1ccccc1	-7.66
Cc1ccccc1CN1CCN(c2ccccc2F)CC1	0.317
C=CCOc1c(CNc2nc[nH]n2)cccc1OCC	2.02
COc1ccc(CN2CCCN(C)CC2)c(OC)c1C	-6.82
CC1Cc2cc(C(=O)C3=C(O)C(=O)N(CC4CCCO4)C3c3cccs3)ccc2O1 (stereo not shown)	0.323
CC(C)COc1ccc(S(=O)(=O)N2CCOCC2)cc1	5.11
COc1ccccc1OCc1ccc(C(=O)N(C)C)o1	-1.33
O=C(c1cccc(Cl)c1)N1CCC(Cc2ccccc2)CC1	2.01
CCOC(=O)c1c(NC(=O)/C=C/c2ccc(OC)c(OC)c2)sc2c1CCCC2	23.6
COc1cccc(CNC(=O)C(C)n2nc(C)c3c(C)n(-c4ccccc4)nc3c2=O)c1OC (stereo not shown)	-0.128
COc1ccc(OC)c(-n2cnc3cc(C(=O)NCCc4ccc(Cl)cc4)ccc32)c1	-3.78
O=C(Cn1cc2c(n1)CCCCC2)NC1CCN(Cc2ccccc2)CC1	-1.8
CC(C)C(NS(=O)(=O)c1cccs1)C(=O)N(C)Cc1ccccc1 (stereo not shown)	-0.0175
CCC(C)(C(=O)NC1CCCCC1)N(C)C(C)=O (stereo not shown)	1.26
CC1(C)CC2=NC3=C(C(=O)CC(C)(C)C3)C(c3cc(Cl)ccc3OCC(=O)O)C2=C(O)C1 (stereo not shown)	-0.736
O=c1oc2c3c(ccc2c2c1CCC2)OCN(Cc1ccccc1)C3	2.65
CC(Sc1nnc2sc3ccccc3n12)C(=O)O (stereo not shown)	0.415
Cc1ccc(NC(=O)c2c(NC(=O)CN3CCNCC3)sc3c2CCCC3)cc1	0.528
CCOC(=O)C1CCN(Cc2ccc([N+](=O)[O-])s2)CC1	3.05
Cc1ccc(C(=O)Nc2sc3c(c2C(N)=O)CCCCC3)cc1	3.67

SMILES	% Inhibition @ 10 uM [%]
CCOc1cc(-c2cc(N)n(S(=O)(=O)c3ccc(C)cc3)n2)cc(OCC)c1OCC	4.28
CCCn1cnc2c(oc3ccccc32)c1=O	-2.07
O=C(CSc1nc2nncc-2c(O)n1-c1ccccc1)Nc1nsc(-c2ccccc2)n1	0.778
CCCSC1=C(C#N)C2(CCCC2)C(C#N)=C(N)N1	6.15
COc1cccc(CN2CCN(c3ccccc3F)CC2)c1	-7.49
Cc1cc(F)ccc1NC(=O)c1cccc(OC(F)F)c1	-1.42
CCOCc1c(C)cc(C)c(C=C(C#N)C#N)c1C	-2.51
COc1cc(/C=C2/C(=N)N3C(=NC2=O)SN=C3S(C)(=O)=O)ccc1OCc1ccc(F)cc1	-3.39
COc1ccccc1C1C(C(=O)c2ccc3c(c2)CC(C)O3)=C(O)C(=O)N1Cc1cccnc1 (stereo not shown)	-0.303
Cc1c(C(=O)NCCc2ccccc2)oc2ccc(S(=O)(=O)N3CCOCC3)cc12	-0.228
Cc1nc2ccccc2n1CCc1nc2c3ccccc3nc(NCCN3CCOCC3)n2n1	-3.85
O=C(c1cc(S(=O)(=O)N2CCOCC2)ccc1Cl)N1CCCc2ccccc21	0.673
CC1=CCC2C(=O)N(Cc3ccccc3)C(=O)C2C1 (stereo not shown)	4.52
O=C1NC2(CCCCC2)N(C(=O)c2ccc(Cl)cc2)C2=C1CCCC2	-6.85
Cc1ccc(C(C)NC(=O)Cc2ccccc2)c(C)c1 (stereo not shown)	0.219
Cc1ccc2nc3c(O)n(CC(=O)NCCCN4CCC(C)CC4)ncc-3c2c1	4.74
CCc1ccc(NCCC(=O)c2ccc(C)o2)cc1	-7.87
Cc1noc2ncnc(N3CCCCC3)c12	-4.02
COc1ccccc1Nc1nc(-c2cc(C)ccc2C)cs1	3.03
COc1ccc(C2c3c(n(C)c(=O)n(C)c3=O)N=C3c4ccccc4C(=O)C32)cc1 (stereo not shown)	1.4
CCSC1=C(C#N)C(c2ccc(Cl)cc2Cl)CC(=O)N1 (stereo not shown)	2.92
O=S(=O)(NCCO)c1ccc(N2CCC(c3ccc(Cl)cc3)=N2)cc1	17.2
c1ccc(C2CC(c3ccco3)n3ncnc3N2)cc1 (stereo not shown)	0.146
CC12CN3CC(C)(CN(C1)C3c1ccccc1)C2O (stereo not shown)	2.92
O=C(Cn1nc(Cc2ccncc2)c2ccccc2c1=O)N1CCC(N2CCCCC2)CC1	42.7
CCCNC(=O)CN(c1ccc(Cl)cc1C)S(C)(=O)=O	-0.564
